From paper PMC9911399, “Two distinct binding modes provide the RNA-binding protein RbFox with extraordinary sequence specificity”
Residue numbers refer to the chain shown, from its start. Some of the results follow.

T1: RBFOX1 RRM (Homo sapiens, UniProt Q9NWB1 109-208)
T1 sequence: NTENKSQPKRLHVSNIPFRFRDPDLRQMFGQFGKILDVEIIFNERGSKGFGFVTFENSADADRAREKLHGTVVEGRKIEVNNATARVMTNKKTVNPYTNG

B1: ACCUCUA (DNA:RNA)
RNA: GGGAGACCGGAAUUCAGAUUGUCCACCUCUAUUAAAUCCCGUCGUAGCCACCA
DNA 1: CAATCTGAATTCCGGTCTCCC
DNA 2: TGGTGGCTACGACGGGATT
B2: CAACGGC (DNA:RNA)
RNA: GGGAGACCGGAAUUCAGAUUGUCCCAACGGCUUAAAUCCCGUCGUAGCCACCA
DNA 1: CAATCTGAATTCCGGTCTCCC
DNA 2: TGGTGGCTACGACGGGATT
B3: GUACUAC (DNA:RNA)
RNA: B2 RNA with C25G, A26U, G29U, G30A
DNA 1: CAATCTGAATTCCGGTCTCCC
DNA 2: TGGTGGCTACGACGGGATT
B4: CUACCUA (DNA:RNA)
RNA: B1 RNA with A25C, C26U, C27A, U28C
DNA 1: CAATCTGAATTCCGGTCTCCC
DNA 2: TGGTGGCTACGACGGGATT
B5: UUGGAAG (DNA:RNA)
RNA: GGGAGACCGGAAUUCAGAUUGUCCUUGGAAGUUAAAUCCCGUCGUAGCCACCA
DNA 1: CAATCTGAATTCCGGTCTCCC
DNA 2: TGGTGGCTACGACGGGATT
B6: GCUGAUA (DNA:RNA)
RNA: B1 RNA with A25G, C27U, U28G, C29A
DNA 1: CAATCTGAATTCCGGTCTCCC
DNA 2: TGGTGGCTACGACGGGATT
B7: GUCCCUC (DNA:RNA)
RNA: B1 RNA with A25G, C26U, U28C, A31C
DNA 1: CAATCTGAATTCCGGTCTCCC
DNA 2: TGGTGGCTACGACGGGATT
B8: ACUGUGA (DNA:RNA)
RNA: B1 RNA with C27U, U28G, C29U, U30G
DNA 1: CAATCTGAATTCCGGTCTCCC
DNA 2: TGGTGGCTACGACGGGATT
B9: UUGUGGC (DNA:RNA)
RNA: B2 RNA with C25U, A26U, A27G, C28U
DNA 1: CAATCTGAATTCCGGTCTCCC
DNA 2: TGGTGGCTACGACGGGATT
B10: ACGCCGG (DNA:RNA)
RNA: B1 RNA with C27G, U28C, U30G, A31G
DNA 1: CAATCTGAATTCCGGTCTCCC
DNA 2: TGGTGGCTACGACGGGATT
B11: UACUCUG (DNA:RNA)
RNA: B1 RNA with A25U, C26A, A31G
DNA 1: CAATCTGAATTCCGGTCTCCC
DNA 2: TGGTGGCTACGACGGGATT
B12: GGAAAGU (DNA:RNA)
RNA: B2 RNA with C25G, A26G, C28A, G29A, C31U
DNA 1: CAATCTGAATTCCGGTCTCCC
DNA 2: TGGTGGCTACGACGGGATT
B13: AUGAAUG (DNA:RNA)
RNA: B5 RNA with U25A, G28A, A30U
DNA 1: CAATCTGAATTCCGGTCTCCC
DNA 2: TGGTGGCTACGACGGGATT
B14: AUAACGC (DNA:RNA)
RNA: B2 RNA with C25A, A26U, C28A, G29C
DNA 1: CAATCTGAATTCCGGTCTCCC
DNA 2: TGGTGGCTACGACGGGATT
B15: GGUUUGG (DNA:RNA)
RNA: B1 RNA with A25G, C26G, C27U, C29U, U30G, A31G
DNA 1: CAATCTGAATTCCGGTCTCCC
DNA 2: TGGTGGCTACGACGGGATT
B16: UGCAAUA (DNA:RNA)
RNA: B1 RNA with A25U, C26G, U28A, C29A
DNA 1: CAATCTGAATTCCGGTCTCCC
DNA 2: TGGTGGCTACGACGGGATT
B17: AGCGCAC (DNA:RNA)
RNA: B1 RNA with C26G, U28G, U30A, A31C
DNA 1: CAATCTGAATTCCGGTCTCCC
DNA 2: TGGTGGCTACGACGGGATT
B18: GGCGAUC (DNA:RNA)
RNA: B1 RNA with A25G, C26G, U28G, C29A, A31C
DNA 1: CAATCTGAATTCCGGTCTCCC
DNA 2: TGGTGGCTACGACGGGATT
B19: CUUACCG (DNA:RNA)
RNA: B5 RNA with U25C, G27U, G28A, A29C, A30C
DNA 1: CAATCTGAATTCCGGTCTCCC
DNA 2: TGGTGGCTACGACGGGATT
B20: UAUACAC (DNA:RNA)
RNA: B2 RNA with C25U, A27U, C28A, G29C, G30A
DNA 1: CAATCTGAATTCCGGTCTCCC
DNA 2: TGGTGGCTACGACGGGATT
B21: UCGUUGA (DNA:RNA)
RNA: B1 RNA with A25U, C27G, C29U, U30G
DNA 1: CAATCTGAATTCCGGTCTCCC
DNA 2: TGGTGGCTACGACGGGATT
B22: AUGCAUC (DNA:RNA)
RNA: B5 RNA with U25A, G28C, A30U, G31C
DNA 1: CAATCTGAATTCCGGTCTCCC
DNA 2: TGGTGGCTACGACGGGATT
B23: UGGUGAU (DNA:RNA)
RNA: B5 RNA with U26G, G28U, A29G, G31U
DNA 1: CAATCTGAATTCCGGTCTCCC
DNA 2: TGGTGGCTACGACGGGATT
B24: CUUACAA (DNA:RNA)
RNA: B1 RNA with A25C, C26U, C27U, U28A, U30A
DNA 1: CAATCTGAATTCCGGTCTCCC
DNA 2: TGGTGGCTACGACGGGATT
B25: UAAUAUA (DNA:RNA)
RNA: B1 RNA with A25U, C26A, C27A, C29A
DNA 1: CAATCTGAATTCCGGTCTCCC
DNA 2: TGGTGGCTACGACGGGATT
B26: AGCGGUC (DNA:RNA)
RNA: B1 RNA with C26G, U28G, C29G, A31C
DNA 1: CAATCTGAATTCCGGTCTCCC
DNA 2: TGGTGGCTACGACGGGATT
B27: GGGAGGG (DNA:RNA)
RNA: B2 RNA with C25G, A26G, A27G, C28A, C31G
DNA 1: CAATCTGAATTCCGGTCTCCC
DNA 2: TGGTGGCTACGACGGGATT
B28: AACCUGA (DNA:RNA)
RNA: B1 RNA with C26A, U28C, C29U, U30G
DNA 1: CAATCTGAATTCCGGTCTCCC
DNA 2: TGGTGGCTACGACGGGATT
B29: AGAAGAG (DNA:RNA)
RNA: B2 RNA with C25A, A26G, C28A, G30A, C31G
DNA 1: CAATCTGAATTCCGGTCTCCC
DNA 2: TGGTGGCTACGACGGGATT
B30: GUCUCGC (DNA:RNA)
RNA: B1 RNA with A25G, C26U, U30G, A31C
DNA 1: CAATCTGAATTCCGGTCTCCC
DNA 2: TGGTGGCTACGACGGGATT
B31: GGAAUCG (DNA:RNA)
RNA: B2 RNA with C25G, A26G, C28A, G29U, G30C, C31G
DNA 1: CAATCTGAATTCCGGTCTCCC
DNA 2: TGGTGGCTACGACGGGATT

Molecular target: T1, RBFOX1 RRM
Experiment: EMSA; HiTS-Eq, 1 nM pool, 10 min; buffer printed only for the single-RNA assays: 10 mM Tris pH 7.5, 150 mM NaCl, 3.4 mM EDTA, 0.001% NP-40, 30 C
Conditions: tags: His6 N-terminal (pET28a); label: 5' 32P
How it was run: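 Purified RbFox RRM (wild type or mutant) was equilibrated for 10 min in 50 µL with 1 nM of a 5′-radiolabelled pool of RNA with 7 randomized nucleotides, its flanks annealed to DNA oligonucleotides, across increasing protein concentrations. Free RNA was separated by 8% native PAGE, excised, reverse-transcribed, PCR-barcoded and sequenced on an Illumina HiSeq 2500. Relative association constants came from read-count changes of each variant against the control reaction, normalised to the cognate motif.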

| Binder | binding signal |
| --- | --- |
| B1 | 0.00197 KA relative to UGCAUGU |
| B2 | 0.00622 KA relative to UGCAUGU |
| B3 | 0.00345 KA relative to UGCAUGU |
| B4 | 0.00199 KA relative to UGCAUGU |
| B5 | 0.0207 KA relative to UGCAUGU |
| B6 | 0.0206 KA relative to UGCAUGU |
| B7 | 0.00747 KA relative to UGCAUGU |
| B8 | 0.0104 KA relative to UGCAUGU |
| B9 | 0.0105 KA relative to UGCAUGU |
| B10 | 0.00777 KA relative to UGCAUGU |
| B11 | 0.0127 KA relative to UGCAUGU |
| B12 | 0.0146 KA relative to UGCAUGU |
| B13 | 0.0232 KA relative to UGCAUGU |
| B14 | 0.000892 KA relative to UGCAUGU |
| B15 | 0.0258 KA relative to UGCAUGU |
| B16 | 0.00605 KA relative to UGCAUGU |

| Binder | binding signal |
| --- | --- |
| B17 | 0.00865 KA relative to UGCAUGU |
| B18 | 0.0111 KA relative to UGCAUGU |
| B19 | 0.00206 KA relative to UGCAUGU |
| B20 | 0.000527 KA relative to UGCAUGU |
| B21 | 0.019 KA relative to UGCAUGU |
| B22 | 0.015 KA relative to UGCAUGU |
| B23 | 0.0192 KA relative to UGCAUGU |
| B24 | 0.000713 KA relative to UGCAUGU |
| B25 | 0.00451 KA relative to UGCAUGU |
| B26 | 0.018 KA relative to UGCAUGU |
| B27 | 0.0121 KA relative to UGCAUGU |
| B28 | 0.00307 KA relative to UGCAUGU |
| B29 | 0.0102 KA relative to UGCAUGU |
| B30 | 0.0149 KA relative to UGCAUGU |
| B31 | 0.0216 KA relative to UGCAUGU |
